PubChem BioAssay AID743279 (National Center for Advancing Translational Sciences (NCATS), 2014)
The campaign covered roughly 360,000 compounds. About 17,000 (4.7%) were called active. Inconclusive results, whose numbers are uncertain, are shown with a selection of clear calls. Cut-off read from the data, not from the text of the source: active = activity change below about -50%; inconclusive = mostly about -30% to -49%; inactive = weaker than that.

Experiment: qHTS for Inhibitors of Inflammasome Signaling: IL-1-beta AlphaLISA Primary Screen
Settings: THP-1 LPS/ATP IL-1B secretion, 16 h; at 57.5 µM, hits give low values
In short: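 Secreted IL-1B measured by AlphaLISA bead assay after 16 h compound exposure of THP-1 cells; compounds (final up to 57.5 uM) added 1 h before LPS (250 ng/mL) and ATP (1.25 mM) stimulation; lower signal means less secretion.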
% is set by controls: 0 for no effect and ±100 for the full control effect.

SMILES | activity change
Cc1ccc(C(C[N+](=O)[O-])c2c(-c3ccccc3O)[nH][nH]c2=O)cc1 (stereo unspecified) | active: -102%
O=C(NCc1ccco1)c1ccc(N2CCCC2=O)cc1 | inconclusive: -42.7%
Cc1cccc(NC(=S)/N=C(\N)Nc2nc(C)c3cc(C)ccc3n2)c1 | inconclusive: -39.5%
Cc1ccc2c(C)c(C(=O)N3CCC(N4CCC(C(=O)NC5CC5)CC4)CC3)oc2c1 | inconclusive: -48.6%
CC(=O)c1ccc(-c2cc([C@H]3[C@H]4C=CC[C@@H](C)[C@@H]4C(=O)N3Cc3ccccc3)ccc2F)cc1 | inactive: -23.1%
CC(=O)c1ccc(OCCCC(=O)N2CCN(S(=O)(=O)c3ccc(C(C)C)cc3)CC2)cc1 | inconclusive: -47.6%
COc1ccc(N(CC(=O)Nc2cccnc2)S(=O)(=O)c2ccc(C)cc2)cc1Cl | inconclusive: -37.6%
Cc1ccc(C(=O)Nc2nnc(COCCO)s2)cc1 | inactive: 22.2%
COc1ccc(CNCC(O)COc2ccc(C(C)(C)c3ccccc3)cc2)cc1 (stereo unspecified) | active: -100%
CC1CCN(c2ccc(NC(=O)C3CCCN3S(=O)(=O)c3ccc(F)cc3)cc2)CC1 (stereo unspecified) | inconclusive: -33.8%
Cc1cc(C)c(S(=O)(=O)Nc2ccc(N3CCOCC3)cc2)c(C)c1 | inconclusive: -30.1%
CCOC(=O)CC(NC(=O)C(CC)c1ccccc1)c1ccccc1Cl (stereo unspecified) | inconclusive: -32.4%
Cc1ccc(S(=O)(=O)N(CC2CO2)c2ccccc2[N+](=O)[O-])cc1 (stereo unspecified) | inconclusive: -31.7%
Cc1ccc(NC(=O)C2CCN(S(=O)(=O)c3c(C)noc3/C=C/N(C)C)CC2)cc1 | inconclusive: -34.6%
CCc1nc(SCC(=O)N2CCN(c3ccccc3)CC2)c2oc3ccccc3c2n1 | active: -67.1%
O=C(Cc1ccc(Cl)c(Cl)c1)Nc1cccc(S(=O)(=O)N2CCOCC2)c1 | active: -80.3%
CCn1c(=O)c2cc(C(=O)NCC(OC)OC)sc2c2ccccc21 | active: -55.8%
O=C1c2cccc(NCCNCCO)c2C(=O)c2cccc(NCCNCCO)c21 | active: -117%
Cc1cc(N)n(-c2nc(-c3cccnc3)nc3ccccc23)n1 | inconclusive: -30.7%
CCOC(=O)c1cccc2c1-c1ccccc1/C2=N/O | active: -54%
O=C(CSc1cn[nH]n1)Nc1ccc(Cl)cc1Cl | inconclusive: -36.2%
O=C(NCc1cccnc1)c1ccc(COc2ccccc2Br)o1 | inconclusive: -42%

SMILES | activity change
COc1ccc(CC(N)c2csc(NC(=O)Cc3ccccc3)n2)cc1 (stereo unspecified) | inconclusive: -49.9%
N#C/C(=C\c1cccnc1)C(=O)Nc1ccc(O)cc1F | inactive: 19.4%
COc1ccc(S(=O)(=O)N2CCCCC2)cc1NC(=O)Cn1cnc2ccccc2c1=O | inactive: -6.83%
COc1ccc(CCCc2nc3ccccc3[nH]2)cc1 | inactive: 16.5%
N#CC1(c2ccccc2)CCC(NCCc2ccccc2)CC1 (stereo unspecified) | inconclusive: -30.7%
Clc1nc(CN2CCCCC2)nc2sc3c(c12)CCCC3 | inconclusive: -39%
Cn1c(=O)c2c(nc(SCCCC#N)n2Cc2c(F)cccc2Cl)n(C)c1=O | inactive: 10.1%
CCN(CC)c1ccc(CNCc2cccs2)cc1 | inconclusive: -42%
Cc1cc(C)c(C)c(S(=O)(=O)N2CCN(C(=S)NCC3CCCO3)CC2)c1C (stereo unspecified) | inactive: 0.726%
Cc1cc(C(=O)N2CCC(Cc3ccccc3)CC2)c(C)o1 | active: -87.2%
CC1CCN(CC(O)COC2CCC(C(C)(C)C)CC2)CC1 (stereo unspecified) | inconclusive: -48.3%
Cc1ccc(NC(=O)CSCC(=O)N2c3ccccc3CCc3ccccc32)cc1 | inconclusive: -39.4%
CCS(=O)(=O)Nc1ccc(-c2nc3cccnc3s2)cc1 | inconclusive: -34.4%
CC(C)(C)S(=O)(=O)Cc1nc(-c2ccc(Cl)c(Cl)c2)cs1 | inconclusive: -35.3%
O=C(c1cc(COc2cccc(C(F)(F)F)c2)on1)N1CCCC1 | inconclusive: -39.3%
CCOC(=O)[C@H]1[C@H]2COc3ccc(Br)cc3[C@@H]2N2C(=O)c3cc(OC)c(OC)cc3NC(=O)[C@@]12C | inconclusive: -33.1%
Cc1ccc(/C=N/N(C)S(=O)(=O)c2ccc(C)cc2)cc1 | inactive: -4.28%
Cc1ccnc(NC(=O)c2cccc(S(=O)(=O)Nc3ccc(C)cc3C)c2)c1 | inconclusive: -45.8%
CCCCCOC(=O)c1ccccc1C(=O)O | inconclusive: -34.7%
Cc1nc2sc(-c3ccccc3)nn2c(=O)c1Br | inactive: 1.24%
CC(C)Cn1c(N)c(C(=O)COC(=O)CC23CC4CC(CC(C4)C2)C3)c(=O)n(C)c1=O | inconclusive: -45.6%
Cc1cccc(N2CCN(C(=O)c3ccncc3)CC2C)c1 (stereo unspecified) | inactive: -1.62%

SMILES | activity change
S=C(Nc1ccc2c(c1)OCO2)N1CCN(Cc2ccco2)CC1 | inconclusive: -34.4%
O=C(CCCOc1ccc(Cl)cc1Cl)N/N=C/c1ccc(Cl)cc1 | inconclusive: -36.8%
CC1=CC(C)(C)Nc2ccc(OC(=O)C(Cc3ccccc3)N3C(=O)c4ccccc4C3=O)cc21 (stereo unspecified) | inconclusive: -31.8%
CN(C)CCCn1c(NCc2ccc3c(c2)OCO3)nc2ccccc21 | inconclusive: -34.2%
Cc1ccc(-c2cc(C(=O)NCCc3ccccn3)c3ccccc3n2)c(C)c1 | inconclusive: -34.5%
CCc1ccc2[nH]c(=O)c(CN(CCCN3CCOCC3)C(=O)Nc3ccc(F)cc3)cc2c1 | inconclusive: -38.4%
O=C(NCCCN1CCN(c2ccc(F)cc2)CC1)C1CCCN(c2ncnc3c2nc2n3CCCCC2)C1 (stereo unspecified) | inconclusive: -45%
CC1(C(=O)NS(=O)(=O)c2ccc(Br)cc2)CCN1C(=O)C1(c2ccccc2)CC1 (stereo unspecified) | inactive: -15.5%
CCCOC(=O)/C(=C\C=C\c1ccccc1)NC(=O)c1ccccc1 | inconclusive: -33.7%
COc1ccc(NC(=O)c2cc(-c3cc(C)cc(F)c3)n[nH]2)cc1OC | inconclusive: -37.6%
Nc1nonc1-c1nc2ccccc2n1Cc1ccc(F)cc1Cl | inconclusive: -38.2%
CCC(=O)NC1=C(Cl)C(=O)C(NC(=O)CC)=C(Cl)C1=O | active: -85.5%
CCN1CCN(c2ccc(S(=O)(=O)N3CCOCC3)cc2NC(=O)C2CCC(C(C)(C)C)CC2)CC1 (stereo unspecified) | inconclusive: -39.4%
O=C(CNC(=O)c1cccs1)N/N=C/c1cccc(Cl)c1 | inconclusive: -30.6%
O=C(NCCN1CCC(n2c(=O)[nH]c3ccccc32)CC1)c1cccc2c1-c1ccccc1C2=O | active: -95.3%
COc1cc(SC)ccc1C(=O)Nc1ccc(Cl)cn1 | inconclusive: -46%
CCCSc1nc2c(cnn2-c2ccccc2)c(=O)n1N | active: -63.3%
Cc1c(C(=O)Nc2cccc([N+](=O)[O-])c2)csc1-c1ccccc1 | inconclusive: -32.2%
C=C1CCC2[C@](C)(CO[C@@H]3O[C@H](CO)[C@@H](O)[C@H](O)[C@H]3O)CCC[C@@]2(C)[C@@H]1CCC1=CCOC1=O (stereo partly specified) | inactive: 28.3%
CCC(c1nc2ccccc2[nH]1)n1c(-c2ccc3ccccc3c2)nc2ccccc21 (stereo unspecified) | inconclusive: -49.9%
COc1ccc(NC(=O)c2cccc3c2C(=O)N(CC2CCCO2)C3)cc1OC (stereo unspecified) | inconclusive: -43.5%
CC1(C(=O)NCc2ccccc2)CSCC(=O)N1C1CCN(Cc2ccccc2)CC1 (stereo unspecified) | inconclusive: -42.7%

SMILES | activity change
CCCCCCn1c(=O)n2n(c1=O)[C@@H]1CN(S(=O)(=O)c3ccc(C)cc3)C[C@]1(O)[C@@H](OC(=O)NCC1CCCCC1)C2 | inconclusive: -36.4%
COc1cccc(NC(=S)NC(=O)/C=C/c2ccc(F)cc2)c1 | inconclusive: -42.6%
Cc1cc(NC(=O)c2ccccc2-c2ccccc2)ccc1Br | inconclusive: -48%
O=C(NC1CCCCCC1)c1ccc(CS(=O)Cc2ccccc2Cl)o1 (stereo unspecified) | active: -54.2%
Cc1ccc(C(=O)OCC(=O)N(C)c2ccccc2)c(C)c1 | inconclusive: -33.1%
Cc1ccc(C(=O)Nc2ccncc2)c(Cl)c1 | inconclusive: -42.8%
Nc1c(C(=O)c2ccc(Br)cc2)oc2ccccc12 | inactive: 11.5%
COc1ccc(C2CC(=O)Nc3cc(OC)c(OC)cc32)cc1 (stereo unspecified) | inconclusive: -35.4%
COc1ccc(/C=C2\SC(=S)N(CCCC(=O)N3CCN(C)CC3)C2=O)cc1 | active: -90.6%
N/C(=N\OC(=O)CCC1CCCC1)c1ccccn1 | inactive: -6.79%
CCCNC(=O)c1cc(C2CCCCN2C(=O)c2ccc3c(c2)CCO3)on1 (stereo unspecified) | inactive: 8.87%
O=C(COc1ccc(Cl)cc1)NCCNc1ccc([N+](=O)[O-])cc1 | inconclusive: -44.2%
Cc1ccc(C)n1-c1nnc(N2CCC(C(=O)NCCCN3CCN(C)CC3)CC2)s1 | inconclusive: -30.6%
Cc1ccc(Nc2nc(C(=O)NCc3ccco3)cs2)cc1 | inconclusive: -31.2%
Cc1coc2c(C)c3oc(=O)c(CCC(=O)NCCCn4ccnc4)c(C)c3cc12 | inconclusive: -36.9%
O=C(NCc1ccccc1Cl)c1cccc(C(F)(F)F)c1 | active: -80.2%
Brc1ccc(-c2ccc(/C=N/Nc3nc(N4CCOCC4)nc(N4CCOCC4)n3)o2)cc1 | inconclusive: -36.5%
CC(CCc1ccccc1)NC(=O)CN1CCSc2ccccc21 (stereo unspecified) | active: -77.9%
COc1ccc2nc(C)c3c(c2c1)OC(C(C)(Cl)Br)C3 (stereo unspecified) | inactive: -13.2%
COc1ccc(C(NC(=O)C2CCN(C/C=C/c3ccc(OC(C)=O)c(OC)c3)CC2)c2ccccn2)cc1 (stereo unspecified) | inactive: -17.3%
